Assay results: PubChem BioAssay AID1768 (National Center for Advancing Translational Sciences (NCATS), 2009)
Hit rate of the full screen: of about 270,000 compounds, about 620 (0.23%) were called active. The inconclusive results got no clear call from the source; some entries with a clear call stand among them for comparison. The call rests on the fitted dose curve; in most records, active means well fitted inhibition curve with a large enough effect in the polarisation, with a control signal flat (not every such curve was filed as active); inconclusive means small, poorly fitted or top-dose-only effect, or effect the other way, or a change in a side signal; inactive means no such curve, though single readings can be large or run the other way; the % refers to the polarisation. Where the call is inconclusive, the potency comes from a doubtful curve fit. A note “side channel” means that the fit belongs to a control or component signal, not to the main read-out.

What follows are molecules tested against Menin (Homo sapiens) (UniProt O00255) (assay: qHTS Assay for Inhibitors Targeting the Menin-MLL Interaction in MLL Related Leukemias: Competition With Texas Red Labeled MLL-derived Mutant Peptide). Conditions: fluorescence polarization; series mostly up to 61.6 µM.
UniProt O00255, sequence (O00255 whole entry, looked up): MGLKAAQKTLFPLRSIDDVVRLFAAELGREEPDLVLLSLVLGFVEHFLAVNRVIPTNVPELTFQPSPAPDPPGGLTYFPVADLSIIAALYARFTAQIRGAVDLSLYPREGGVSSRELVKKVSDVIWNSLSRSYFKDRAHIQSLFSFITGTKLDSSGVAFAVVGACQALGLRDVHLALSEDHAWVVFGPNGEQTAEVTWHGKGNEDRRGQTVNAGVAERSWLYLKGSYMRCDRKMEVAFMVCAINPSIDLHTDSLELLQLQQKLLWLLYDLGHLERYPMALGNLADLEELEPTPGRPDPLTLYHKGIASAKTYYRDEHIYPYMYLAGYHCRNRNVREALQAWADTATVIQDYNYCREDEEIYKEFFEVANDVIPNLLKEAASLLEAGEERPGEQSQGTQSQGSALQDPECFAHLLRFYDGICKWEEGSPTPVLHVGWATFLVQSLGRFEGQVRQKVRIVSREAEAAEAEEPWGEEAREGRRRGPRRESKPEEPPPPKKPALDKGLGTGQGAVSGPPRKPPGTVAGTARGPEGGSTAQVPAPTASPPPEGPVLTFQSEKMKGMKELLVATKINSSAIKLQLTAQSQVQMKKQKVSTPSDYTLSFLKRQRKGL
Potency means the concentration at half of the fitted maximal effect; tags describe the fitted curve by direction and shape or compound fluorescence and quenching.

Row | SMILES | Potency
1 | N[C@H](Cc1cc(I)c(Oc2cc(I)c(O)c(I)c2)c(I)c1)C(=O)O | inconclusive: 12.6 µM [quencher, side channel, partial curve]
2 | NC(=O)[C@@H]1CCNc2c(I)cc([N+](=O)[O-])cc2C(=O)N[C@@H](CCC(=O)O)C(=O)N[C@@H](CO)C(=O)N1 | inconclusive: 28.2 µM [quencher, side channel, single point]
3 | COc1ccccc1-c1cc2ccccc2[nH]1 | inconclusive: 25.1 µM [quencher, side channel, partial curve]
4 | O=C(CCc1c[nH]c2ccccc12)N1CCN(c2ccc(O)cc2)CC1 | inconclusive: 20 µM [quencher, side channel, partial curve]
5 | Nc1c(Br)cc(Br)c(N2CCCC2=O)c1Br | inconclusive: 3.55 µM [fluorescent, side channel, single point]
6 | CC1CCN(S(=O)(=O)N2CCN(C(=O)c3ccc4c(c3)OCO4)CC2)CC1 | inconclusive: 31.6 µM [inhibitor, partial curve]
7 | Cc1cc(OCCCN2CCN(Cc3ccccc3)CC2)ccc1[N+](=O)[O-] | inconclusive: 17.8 µM [fluorescent, side channel, partial curve]
8 | CCc1cccc(C)c1NC(=O)c1cc(C)oc1C | inconclusive: 22.4 µM [inhibitor, single point]
9 | Cc1cc(Br)ccc1NC(=O)CN1C(=O)C2C3CC(c4ccccc4)C(C3)C2C1=O (configuration not stated) | inconclusive: 2.82 µM [quencher, side channel, full curve]
10 | CCn1c(SCC(=O)NCCOC)nc2sc(C)c(C)c2c1=O | inactive
11 | COc1ccc2cc(C(=O)NCc3ccccc3)[nH]c2c1 | inconclusive: 39.8 µM [inhibitor, single point]
12 | COc1ccc(-c2cc(=O)c(C(=O)c3ccc(C)cc3)n[nH]2)cc1 | inactive
13 | COc1ccc([C@]23Cc4ccccc4C(O2)c2c(c4ccc(OC)cc4oc2=O)O3)cc1 | inconclusive: 3.55 µM [quencher, side channel, partial curve]
14 | CC(=O)N1c2ccccc2C(C)(c2ccccc2)CC1(C)C (configuration not stated) | inconclusive: 25.1 µM [fluorescent, side channel, partial curve]
15 | Cc1ccc(Sc2c(C)nn(C(=O)C3CC3)c2C)cc1 | inconclusive: 15.8 µM [inhibitor, partial curve]
16 | Cc1ccc(NC(=O)C2CCCN(S(=O)(=O)c3cccc4nonc34)C2)cc1 (configuration not stated) | inconclusive: 39.8 µM [fluorescent, side channel, single point]
17 | CC(C)OCCCN1CC(=O)N2C(c3cccc([N+](=O)[O-])c3)c3[nH]c4ccccc4c3C[C@H]2C1=O (some centres not stated) | inconclusive: 17.8 µM [quencher, side channel, single point]
18 | CC(C)NC(=O)Cn1cnc2c1c(=O)n(C)c(=O)n2C | inconclusive: 8.91 µM [inhibitor, single point]
19 | CC1(C)C(=O)OC(c2ccc([N+](=O)[O-])cc2)C(C)(C)C1=O (configuration not stated) | inconclusive: 5.62 µM [quencher, side channel, full curve, poor fit]

Row | SMILES | Potency
20 | COc1ccc(NC(=O)C2=CC(c3ccc(C)cc3)=NS(=O)(=O)N2C)cc1OC | inconclusive: 20 µM [quencher, side channel, partial curve]
21 | O=C(O)c1c(Sc2ccccc2)c2cc(Cl)ccc2n1Cc1ccc(Cl)cc1 | inconclusive: 15.8 µM [quencher, side channel, partial curve]
22 | CCCOc1ccccc1-c1nc2c([nH]1)c(=O)[nH]c(=O)n2C | inactive
23 | CC(=N)C1=C(O)CC(c2ccccc2)CC1=O (configuration not stated) | inconclusive: 0.316 µM [quencher, side channel, full curve, poor fit]
24 | Cc1ccccc1C(=O)c1cccn1CC(=O)NCC(C)c1ccccc1 (configuration not stated) | inconclusive: 8.91 µM [inhibitor, full curve]
25 | Cc1cccc(C)c1OCC(O)CN1CCN(c2ccccn2)CC1 (configuration not stated) | inconclusive: 28.2 µM [inhibitor, single point]
26 | CN(CC(=O)Nc1sccc1C#N)C1CCCCC1 | inconclusive: 28.2 µM [quencher, side channel, single point]
27 | Cc1cc([N+](=O)[O-])c(C)cc1-c1ccc(/C=N/NC(=O)Cn2nnnc2N)o1 | inconclusive: 31.6 µM [quencher, side channel, single point]
28 | CCOc1cc(/C=C2\C(=O)N(c3cccc(C(F)(F)F)c3)C(=O)c3ccccc32)ccc1O | inconclusive: 39.8 µM [quencher, side channel, single point]
29 | CC(=O)Nc1ccc(-c2csc(NC(=O)CCCc3cccs3)n2)cc1 | inconclusive: 14.1 µM [quencher, side channel, partial curve]
30 | COC(=O)c1cc2ccsc2n1CC(=O)Nc1cc(Cl)ccc1OC | inconclusive: 22.4 µM [quencher, side channel, single point]
31 | Oc1c(N=NC(=S)Nc2ccccc2F)c2ccccc2n1Cc1cccc(Cl)c1 | inconclusive: 7.94 µM [quencher, side channel, partial curve]
32 | CN(CCCNC(=O)c1cc2c(Cl)nc3ccccc3c2s1)Cc1ccccc1 | inconclusive: 20 µM [inhibitor, partial curve, poor fit]
33 | COc1cccc(Cn2c(=O)c(-c3cccs3)nc3cnc(Nc4cccc(OC)c4)nc32)c1 | inconclusive: 2.82 µM [quencher, side channel, full curve]
34 | Cc1ccc(C(=O)Oc2coc(CSc3nnc(NC(=O)c4cccs4)s3)cc2=O)cc1 | inconclusive: 28.2 µM [quencher, side channel, single point]
35 | O=C(CCC(=O)OCCCC(F)(F)C(F)(F)F)NC1CCCCC1 | inconclusive: 0.708 µM [inhibitor, partial curve, poor fit]
36 | O=C(Cn1cc(C(F)(F)F)ccc1=O)N/N=C/c1cccc(Cl)c1Cl | inconclusive: 39.8 µM [fluorescent, side channel, single point]
37 | COc1cc(C(=O)NCc2ccncc2)cc(Br)c1OCc1ccccc1 | inactive
38 | O=C(COC(=O)Cc1ccc(S(=O)(=O)N2CCCCC2)s1)Nc1ccc2c(c1)OCO2 | inconclusive: 17.8 µM [quencher, side channel, partial curve]

Row | SMILES | Potency
39 | CCOC(=O)N1CCN(C(=O)CCCn2nc(C)c3sc4ccccc4c3c2=O)CC1 | inconclusive: 14.1 µM [inhibitor, partial curve]
40 | C/C=C(/C)C(=O)OC1c2c(ccc3ccc(=O)oc23)OC(C)(C)C1OC(=O)/C(C)=C\C (configuration not stated) | inconclusive: 3.16 µM [fluorescent, side channel, partial curve]
41 | C/C(=N/N=C1/NC(=O)CC(C(=O)Nc2ccccc2)S1)c1cccs1 (configuration not stated) | inconclusive: 39.8 µM [quencher, side channel, single point]
42 | COc1ccc(/C=C2/SC(=S)N(CCC(=O)O)C2=O)cc1 | inactive
43 | O=C(N/N=C/c1c(O)ccc2ccccc12)c1[nH]ncc1Br | inconclusive: 8.91 µM [quencher, side channel, partial curve]
44 | COc1ccc(CCNCc2ccccc2N2CCCC2)cc1 | inconclusive: 15.8 µM [fluorescent, side channel, partial curve]
45 | S=C(Nc1ccc(Cl)cc1)c1nc2ccccc2s1 | inconclusive: 8.91 µM [quencher, side channel, partial curve]
46 | Cc1ccccc1CS(=O)(=O)CCC(=O)NCCCN1CCN(c2ccccc2F)CC1 | inactive
47 | COC(=O)c1c(C)oc2c1cc(NS(=O)(=O)c1cccs1)c1ccccc12 | inconclusive: 39.8 µM [quencher, side channel, single point]
48 | NC(=O)c1c(NC(=S)Nc2ccccc2)sc2c1CCCC2 | inconclusive: 11.2 µM [quencher, side channel, partial curve]
49 | COc1ccc(N2CCN(C3CC(=O)N(Cc4ccccc4)C3=O)CC2)cc1 (configuration not stated) | inconclusive: 31.6 µM [quencher, side channel, single point]
50 | Cc1sc2nc(SCc3nc(-c4cccs4)no3)n(-c3ccccc3)c(=O)c2c1C | inconclusive: 35.5 µM [fluorescent, side channel, single point]
51 | O=C(Nc1ccccc1)c1ccc(OC(=O)c2ccccc2)cc1 | inconclusive: 17.8 µM [fluorescent, side channel, single point]
52 | CCC(=O)/C=C1/Sc2ccccc2N1CC | inactive
53 | COc1ccc(/C=N/NC(=O)c2cc(Br)ccc2O)cc1Cn1cc(Cl)cn1 | inconclusive: 8.91 µM [quencher, side channel, partial curve]
54 | O=C(Nc1cccc(O)c1)c1cc(-c2ccccc2Cl)on1 | inconclusive: 39.8 µM [inhibitor, single point]
55 | COCCN(C(=O)COC(=O)/C=C/c1ccc2ccccc2n1)c1c(N)n(Cc2ccccc2)c(=O)[nH]c1=O | inconclusive: 39.8 µM [fluorescent, side channel, single point]
56 | Cc1ccc(-c2nnc(C)c(N3CCOCC3)n2)cc1 | inconclusive: 8.91 µM [inhibitor, full curve, poor fit]
57 | COc1ccc(Cn2cccc(NC(=O)Nc3ccc(F)cc3)c2=O)cc1 | inconclusive: 31.6 µM [quencher, side channel, single point]
